“And” between values parts separate entries of the source, which are not always exact repeats. Equal entries are not always repeated.

One assay concerns the target NA of influenza virus A/Jena/8178/2009 (8178/09; A(H1N1)pdm09) (Influenza A virus, UniProt A0A088CA11).
Assay: not given
The conditions noted are these: pH 6; read-out: IC50 in FL assay against IAV 8178/09. Type of assay: biochemical.
For `CCC(CC)O[C@@H]1C=C(C(=O)O)C[C@H](N)[C@H]1NC(C)=O` [Oseltamivir carboxylate GS4071, reference compound], the IC50 was 0.004 ± 0.001 µM.
The same measure, in the same setting: for sanggenon G [Compound 4] the value was 30.9 ± 6.46 µM.

The target in the next assay is recombinant NanA of pneumococcal strain DSM20566 (rNanA) (Streptococcus pneumoniae, UniProt P62576). The assay can be described thus: biochemical. Type of assay: biochemical. The settings on record: IC50 in FL assay against S. pneumoniae rNanA, pure compounds; MUNANA, pH 6.0; highest tested 100 μM.
Sequence of recombinant NanA of pneumococcal strain DSM20566 (rNanA) (P62576 54-1006): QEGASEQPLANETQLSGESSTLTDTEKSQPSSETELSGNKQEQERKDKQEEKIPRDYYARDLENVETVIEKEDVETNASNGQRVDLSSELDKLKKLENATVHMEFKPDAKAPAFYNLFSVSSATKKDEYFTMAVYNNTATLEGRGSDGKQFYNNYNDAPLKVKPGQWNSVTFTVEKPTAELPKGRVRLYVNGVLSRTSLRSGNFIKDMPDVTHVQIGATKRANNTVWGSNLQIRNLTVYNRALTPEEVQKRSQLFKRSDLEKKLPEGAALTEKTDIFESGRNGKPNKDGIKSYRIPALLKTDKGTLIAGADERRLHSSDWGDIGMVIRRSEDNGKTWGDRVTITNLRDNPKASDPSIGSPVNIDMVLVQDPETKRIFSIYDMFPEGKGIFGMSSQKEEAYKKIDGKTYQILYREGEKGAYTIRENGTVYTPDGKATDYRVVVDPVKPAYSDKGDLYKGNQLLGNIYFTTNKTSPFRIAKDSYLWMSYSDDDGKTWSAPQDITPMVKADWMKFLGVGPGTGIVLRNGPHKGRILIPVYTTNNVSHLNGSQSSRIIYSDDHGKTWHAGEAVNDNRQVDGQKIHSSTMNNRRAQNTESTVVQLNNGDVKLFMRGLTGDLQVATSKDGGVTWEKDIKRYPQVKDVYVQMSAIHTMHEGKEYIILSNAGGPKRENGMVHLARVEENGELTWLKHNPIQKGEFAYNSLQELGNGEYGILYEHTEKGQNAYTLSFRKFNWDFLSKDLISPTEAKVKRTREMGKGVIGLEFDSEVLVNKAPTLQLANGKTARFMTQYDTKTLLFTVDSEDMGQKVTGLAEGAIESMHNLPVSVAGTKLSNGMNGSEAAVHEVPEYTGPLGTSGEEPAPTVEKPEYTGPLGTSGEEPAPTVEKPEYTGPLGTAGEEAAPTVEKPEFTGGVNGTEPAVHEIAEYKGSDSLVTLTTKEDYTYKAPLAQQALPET
As for `COc1ccc(C2CC(=O)c3c(O)cc(O)cc3O2)cc1O` (racemic) [Compound 10, (±)-hesperetin], the IC50 was 32.1 ± 5.66 µM.
`O=C1CC(c2ccc(O)c(O)c2)Oc2cc(O)cc(O)c21` (racemic) [Compound 11, (±)-eriodictyol]: the IC50 came to 11.6 ± 4.45 µM.
For the molecule `COc1cc([C@H]2Oc3cc([C@H]4Oc5cc(O)cc(O)c5C(=O)[C@@H]4O)ccc3O[C@@H]2CO)ccc1O` (racemic) [Compound 17, (±)-silybin], the IC50 came out at 24.6 ± 4.5 µM.
Regarding `CC(C)=CCc1cc(C2CC(=O)c3ccc(O)cc3O2)ccc1O` (racemic) [Compound 18, (±)-abyssinone II], the IC50 is 68.4 ± 8.82 µM.
For the molecule `CC(C)=CCC12Oc3cc(O)c(C4=CC5(C)CC(C4)c4ccc(O)cc4O5)c(O)c3C(=O)C1(O)Oc1cc(O)ccc12` (centres unmarked) [Compound 1, sanggenon B], the IC50 was found to be 15 ± 3.48 µM.
With `CC(C)=CC[C@]12Oc3cc(O)c([C@H]4C=C(C)C[C@H](c5ccc(O)cc5O)[C@H]4C(=O)c4ccc(O)cc4O)c(O)c3C(=O)[C@@]1(O)Oc1cc(O)ccc12` [Compound 2, sanggenon C], the IC50 was determined as 11.3 ± 1.27 µM.
As to `CC(C)=CCC/C(C)=C/Cc1c(O)ccc([C@@H]2CC(=O)c3c(O)cc(O)cc3O2)c1O` [Compound 5, sanggenol A], the IC50 was 6.2 µM and 6.22 µM.
Same read-out and setting: to `CC1=C[C@H](c2c(O)ccc([C@@H]3CC(=O)c4c(O)cc(O)cc4O3)c2O)[C@@H](C(=O)c2ccc(O)cc2O)[C@H](c2ccc(O)cc2O)C1` [Compound 6, kuwanon L] belongs 8.3 µM and 8.34 µM; to `COc1c(O)cc2c(c1O)C(=O)CC(c1ccccc1)O2` (centres unmarked) [Compound 8, 2,3-dihydro-5,7-dihydroxy-6-methoxy-2-phenyl-4H-1-benzopyran-4-one], 24.5 ± 0.84 µM; to `O=C1CC(c2ccc(O)cc2O)Oc2cc(O)cc(O)c21` (centres unmarked) [Compound 12, 2',4',5,7-tetrahydroxyflavanone], 11.5 ± 1.96 µM.
As to `O=c1cc(-c2ccc(O)c(O)c2O)oc2cc(O)cc(O)c12` [Compound 14, 2',3',4',5,7-pentahydroxyflavone], the IC50 amounted to 13.8 ± 9.71 µM.
Consider `O=c1c(O)c(-c2ccc(O)cc2O)oc2cc(O)cc(O)c12` [Compound 16, morin], for which the IC50 is 20.3 ± 1.7 µM.
Regarding `COc1ccc(C2CC(=O)c3c(cc(O)c(CC=C(C)C)c3O)O2)cc1` (centres unmarked) [Compound 19], the IC50 is 9.29 ± 1.49 µM.
Consider `CC(C)=CCc1cc(C2CC(=O)c3c(O)cc(O)cc3O2)ccc1O` (centres unmarked) [Compound 20, 4',5,7-trihydroxy-3'-prenylflavanone], for which the IC50 was 11.1 ± 4.63 µM.
For `COc1cc(C2CC(=O)c3c(O)cc(O)cc3O2)cc(CC=C(C)C)c1O` (centres unmarked) [Compound 21, 2,3-dihydro-5,7-dihydroxy-2-[4-hydroxy-3-methoxy-5-(3-methyl-2-butenyl)phenyl]-4H-1-benzopyran-4-one], the IC50 worked out at 15 ± 5.5 µM.
For `CC(C)=CCC/C(C)=C/Cc1c(O)cc2c(c1O)C(=O)[C@H](O)[C@@H](c1ccc(O)cc1)O2` [Compound 26, bonanniol A], the IC50 was found to be 12.6 ± 1.89 µM.
Still for that read-out and setting: to `COc1c(CC=C(C)C)cc([C@@H]2CC(=O)c3c(O)cc(O)cc3O2)cc1CC=C(C)C` [Compound 27, abyssinone-V 4'-methyl ether] belongs 2.18 ± 0.45 µM.
For the molecule `CC(C)=CCc1c(O)c(CC=C(C)C)c2c(c1O)C(=O)C[C@@H](c1ccc(O)cc1)O2` [Compound 28, 6,8-diprenylnaringenin], the IC50 was found to be 10.3 ± 2.57 µM.
As to `CC(C)=CCc1c(O)c(CC=C(C)C)c2c(c1O)C(=O)CC(c1cc(O)cc(O)c1)O2` (centres unmarked) [Compound 29, 2-(3,5-dihydroxyphenyl)-2,3-dihydro-5,7-dihydroxy-6,8-bis(3-methyl-2-buten-1-yl)-4H-1-benzopyran-4-one], the IC50 came to 24.5 ± 3.25 µM.
Consider `CC(C)=CCc1c(O)c(CC=C(C)C)c2occ(-c3ccc(O)cc3)c(=O)c2c1O` [Compound 30, 6,8-diprenylgenistein], for which the IC50 is 10 µM.
Take `CC(C)=CCc1c(O)c(CC=C(C)C)c2occ(-c3ccc(O)c(O)c3)c(=O)c2c1O` [Compound 31, 6,8-diprenylorobol]: the IC50 stood at 8 ± 2.58 µM.
For `CC(C)=CCc1c(O)c(CC=C(C)C)c2c(c1O)C(=O)C(c1ccc(O)cc1O)CO2` (centres unmarked) [Compound 32, orientanol E], the IC50 came to 15.4 ± 9.71 µM.
For `CC(C)=CCc1c(O)cc(CCc2ccccc2)c(CC=C(C)C)c1O` [Compound 33, 2,4-bis(3-methyl-2-buten-1-yl)-5-(2-phenylethyl)-1,3-benzenediol], the IC50 was 2.6 ± 1.2 µM.

Staying with this assay, now noted: pure compounds; MUNANA, pH 6.0; highest tested 100 μM.
Turning to `O=c1cc(-c2ccc(O)c(O)c2)oc2cc(O)cc(O)c12` [Compound 15, luteolin], the “IC50 in FL assay against S. pneumoniae rNanA” value is “inactive”.

The same assay, now with this note: pure compounds; MUNANA, pH 6.0; highest tested 100 μM; read-out: IC50 in FL assay against S. pneumoniae rNanA.
For the molecule `CCC(CC)O[C@@H]1C=C(C(=O)O)C[C@H](N)[C@H]1NC(C)=O` [Oseltamivir carboxylate GS4071, reference compound], the IC50 was found to be 6.98 ± 2.44 µM.
sanggenon D [Compound 3]: the IC50 was 3.15 ± 1.01 µM.
For the molecule sanggenon G [Compound 4], the IC50 is 2.9 µM and 2.91 µM.

Source of the values: article PMC4891693, “Discovery of prenylated flavonoids with dual activity against influenza virus and Streptococcus pneumoniae” (Scientific Reports, 2016).
